# Reference: article PMC4336329 (PLoS ONE, 2015)
# About 2,200 (0.71%) of roughly 310,000 compounds showed an effect of 50% or more. The effect is printed as a negative number. This is one part of the list.
# Molecular target: human ether-à-go-go-related gene (hERG) potassium channel (human, UniProt Q12809)
# Assay: primary screen, population patch clamp on CHO cells stably expressing hERG
# human ether-à-go-go-related gene (hERG) potassium channel, sequence (Q12809 whole entry, looked up): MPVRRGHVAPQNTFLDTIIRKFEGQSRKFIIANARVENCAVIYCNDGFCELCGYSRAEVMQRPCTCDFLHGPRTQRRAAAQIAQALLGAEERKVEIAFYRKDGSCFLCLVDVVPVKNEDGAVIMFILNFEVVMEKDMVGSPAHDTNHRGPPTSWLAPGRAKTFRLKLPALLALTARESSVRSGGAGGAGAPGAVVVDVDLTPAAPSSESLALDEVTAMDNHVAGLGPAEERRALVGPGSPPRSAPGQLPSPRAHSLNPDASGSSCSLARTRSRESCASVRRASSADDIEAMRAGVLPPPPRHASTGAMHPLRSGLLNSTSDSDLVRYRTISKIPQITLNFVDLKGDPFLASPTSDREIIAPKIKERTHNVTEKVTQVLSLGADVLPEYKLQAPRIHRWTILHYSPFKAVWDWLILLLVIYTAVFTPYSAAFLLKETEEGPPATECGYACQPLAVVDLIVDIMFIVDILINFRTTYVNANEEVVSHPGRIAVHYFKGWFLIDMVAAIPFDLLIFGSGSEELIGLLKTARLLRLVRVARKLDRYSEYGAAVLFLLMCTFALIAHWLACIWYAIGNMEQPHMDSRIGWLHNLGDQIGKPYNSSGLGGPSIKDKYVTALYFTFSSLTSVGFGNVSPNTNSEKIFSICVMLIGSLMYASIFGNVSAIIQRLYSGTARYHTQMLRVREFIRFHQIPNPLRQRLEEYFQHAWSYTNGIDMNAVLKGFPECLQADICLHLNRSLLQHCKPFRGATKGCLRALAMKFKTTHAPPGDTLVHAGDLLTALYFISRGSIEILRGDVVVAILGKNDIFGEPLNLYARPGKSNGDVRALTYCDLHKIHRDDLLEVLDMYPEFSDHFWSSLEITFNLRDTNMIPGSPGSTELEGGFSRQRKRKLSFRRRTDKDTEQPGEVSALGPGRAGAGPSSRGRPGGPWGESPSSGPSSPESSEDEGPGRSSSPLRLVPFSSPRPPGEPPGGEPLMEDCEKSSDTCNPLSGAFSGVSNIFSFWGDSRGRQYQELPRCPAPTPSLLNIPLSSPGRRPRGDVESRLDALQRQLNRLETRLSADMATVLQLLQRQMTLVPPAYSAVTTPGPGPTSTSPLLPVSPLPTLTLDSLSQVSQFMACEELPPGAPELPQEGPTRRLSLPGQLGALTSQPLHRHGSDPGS
row,SMILES,"hERG current change (%, negative = inhibition) at 1uM [%]"
1,CC/C(=N\N1CCN(C)CC1)c1c(O)[nH]c(=O)[nH]c1=O,13.5
2,COc1cc(NC(=O)C2=C(C)OCCS2)c(Cl)cc1C(=O)NCCN(C)C,8.31
3,Brc1cccc(-c2nnc3sc(CNCc4ccco4)cn23)c1,-32.9
4,COc1ccc(C(CNC(=O)c2cc3c(s2)CCC(C)C3)N2CCCC2)cc1 (stereo not shown),6.06
5,O=C(O)C1C2C=CC(C3CC23)C1C(=O)NCCc1ccccc1 (stereo not shown),9.67
6,COc1ccccc1C(=O)Nc1ccnn1C1CCN(Cc2ccccc2OCCO)CC1,-79.5
7,CCc1ccccc1NC(=O)CSc1ncn[nH]1,13.5
8,COc1ccc(CC(C(=O)Nc2ccc(OC)cc2)c2nn[nH]n2)cc1 (stereo not shown),15.3
9,COc1ccc(NC(=O)c2cc(-c3ccccc3)nc3c2cnn3C(C)C)c(OC)c1,6.41
10,COC(=O)c1ccc(COC(=O)C2CCN(S(=O)(=O)c3c(Cl)cccc3Cl)CC2)o1,-6.14
11,CC(=O)Nc1ccc(S(=O)(=O)NCC2CCC(C(=O)NCCCN3CCCC3=O)CC2)cc1 (stereo not shown),-3.27
12,Cc1cccc2c1NC(=O)C2(O)N1CCCC(C)C1 (stereo not shown),14.1
13,Cc1ccc(CNS(=O)(=O)c2ccc(C)s2)cc1,11.2
14,COCCN(CC(=O)Nc1ccccc1C(F)(F)F)C(=O)c1ccc(-n2cccn2)cc1,7.18
15,CC1CCN(C(=O)Cn2nnc(-c3cccs3)n2)CC1,9.91
16,COc1ccc(CCNC(=O)C2CC3Cn4c(nc5ccccc54)C3N2C)cc1 (stereo not shown),3.21
17,O=C(N/N=C/c1ccc(Cl)cc1Cl)c1ccncc1,9.01
18,Cc1ccccc1NS(=O)(=O)c1ccc(C(=O)NN2CCCCC2)cc1,14.4
19,Cc1ccccc1Cn1c(=O)n(CCCC(=O)NCc2ccco2)c(=O)c2sccc21,10.1
20,Cn1c(=O)c(NCCO)c2c3c(cccc31)C(=O)c1ccccc1-2,4.69
21,CC(C)c1cc(NC(=O)c2ccccc2)cc(C(C)C)c1O,7.77
22,O=C(Nc1nccs1)c1ccc(-c2ccccc2[N+](=O)[O-])o1,11.3

row,SMILES,"hERG current change (%, negative = inhibition) at 1uM [%]"
1,Cc1ccc(S(=O)(=O)NCCC(=O)NCc2ccco2)cc1,2.75
2,Cc1cccc(CS(=O)(=O)Cc2ccc(C(=O)N3CCC4(CC3)OCCO4)o2)c1,10
3,C=CCOc1ccc(/C=C2/C(=N)N3N=C(CC(=O)N4CCCC4)SC3=NC2=O)cc1OC,23.9
4,COc1ccccc1NC(=O)c1ccc(Cl)c(S(=O)(=O)N2CCCCC2)c1,18.3
5,CCOC(=O)C(C)Sc1nnc(Cc2cc(=O)[nH]c(=O)[nH]2)n1-c1ccc(OCC)cc1 (stereo not shown),1.26
6,COc1ccc(C(=O)OCC(=O)Nc2ccc3[nH]c(=O)[nH]c3c2)c(OC)c1OC,8.31
7,Cc1ccccc1NC(=O)NC1(C(=O)N2CCC(O)CC2)CCCCC1,15.4
8,CC1CCN(Cc2c(C(=O)N/N=C/c3cc(Cl)ccc3O)nnn2-c2nonc2N)CC1,19.1
9,CC1CCN(C(=O)CSc2nnc(CNC(=O)c3ccco3)o2)CC1,16.4
10,COc1ccc(C(O)c2ncc(C(F)(F)F)cc2Cl)cc1 (stereo not shown),18
11,C/C(=N\NC(=O)C12CCC(C)(C(=O)O1)C2(C)C)c1ccccc1O (stereo not shown),-37.8
12,CS(=O)(=O)N1CCN(C(=O)c2cccnc2)CC1,18.9
13,Cc1ccc(S(=O)(=O)N2CCCCC2)cc1NC(=O)C1CC(=O)N(Cc2ccco2)C1 (stereo not shown),10.2
14,Cc1[nH]c2ccccc2c1C(=O)C(=O)NCCCc1ccccc1,11.6
15,CCn1c(P(C)(=O)[O-])nc2cc(NC(=O)c3ccccc3Cl)ccc21.[K+],-1.28
16,COCC1COS(=O)(=O)NC1(C)C (stereo not shown),9.55
17,O=C1c2ccccc2C(=O)N1c1nc2nccc(-c3ccccc3)n2n1,8.74
18,CCOC(=O)/C(C#N)=C/Nc1ccccc1OC,5.72
19,NS(=O)(=O)c1cccc(NC(=O)COC(=O)C2(c3cccc(F)c3)CCCC2)c1,11.3
20,Cc1ccc(NC(=O)C2CC(=O)N(CCc3ccccc3)C2)cc1Cl (stereo not shown),11
21,O=C(CF)NC(NC(=S)Nc1cccc([N+](=O)[O-])c1)C(Cl)(Cl)Cl (stereo not shown),14.5
22,CSc1nc(NCc2ccco2)c2sc3nc(C(C)C)c4c(c3c2n1)CC(C)(C)OC4,6.33

row,SMILES,"hERG current change (%, negative = inhibition) at 1uM [%]"
1,COc1ccc2oc(C(=O)OCC(=O)N(Cc3ccccc3)C(C)(C)C)c(C)c2c1,14.7
2,COc1ccc(C)cc1NC(=O)C1CCCN1S(=O)(=O)c1ccccc1F (stereo not shown),9.29
3,Cc1cc(C(=O)OCn2nnc3ccccc3c2=O)c(C)n1-c1ccccc1,14.7
4,CCC(C)n1c(O)c(/C=N/Nc2ccccc2)c(=O)[nH]c1=S (stereo not shown),10.3
5,COc1ccc(OCCCC(=O)NCCc2ccccc2)cc1,5.28
6,Cc1c(NS(=O)(=O)c2ccc(NCC3CCCO3)c([N+](=O)[O-])c2)c(=O)n(-c2ccccc2)n1C (stereo not shown),-5.18
7,COc1cccc(-c2nnc(SCC(=O)Nc3cc(C)on3)o2)c1,8.6
8,CCOc1ccc(OCC)c(NC(=O)CCn2c(=O)oc3ccccc32)c1,4.38
9,Cn1c(CN2CCN(CCO)CC2)c(C#N)c2ccccc21,11.3
10,NC(=O)CC(c1ccccc1)c1ccco1 (stereo not shown),16
11,Cc1ccnc2nc(C(=O)Nc3nnc(-c4ccccc4)o3)nn12,9.69
12,COc1ccc(CN2CCNC(=O)C2CC(=O)NCCSc2nccn2C)c(OC)c1 (stereo not shown),10.2
13,COc1cccc(C(=O)NN2CC(O)=C(c3nc4ccccc4n3C)C2=N)c1,8.09
14,Cc1ccc(N2CC(C(=O)N3CCC(C(=O)Nc4nnc(C(C)(C)C)s4)CC3)CC2=O)cc1 (stereo not shown),11.9
15,NC(=O)c1ccccc1NS(=O)(=O)c1ccc(F)cc1,8.37
16,CCOc1ccc(-n2c(-c3ccc(OC)cc3)c[n+]3c2CCCCC3)cc1.[Br-],-39.1
17,CC(CCc1ccccc1)NC(=O)CN1C(=O)NC2(CCCCC2)C1=O (stereo not shown),16.3
18,O=C(/C=C/c1ccc([N+](=O)[O-])cc1)OCc1cnc(-c2ccccc2)o1,7.83
19,CC(=O)NN1C(=O)/C(=C\c2ccccc2)SC1=S,7.91
20,Cc1cc(C)nc(NCC(O)COc2ccccc2C)n1 (stereo not shown),6.53
21,Fc1cccc(CSc2nc3ncc(Cl)cc3[nH]2)c1,12
22,CCc1nnc(NS(=O)(=O)c2ccc(NC(=S)Nc3ccc(F)cc3)cc2)s1,13.5

row,SMILES,"hERG current change (%, negative = inhibition) at 1uM [%]"
1,CCC1(C)Cc2ccccc2-c2[nH][nH]c(=O)c21 (stereo not shown),14
2,CC1NC(=O)NC1CCCCC(=O)O (stereo not shown),-5.07
3,CCC(Cc1ccccc1)NS(=O)(=O)c1ccc2c(c1)NC(=O)CO2 (stereo not shown),7.15
4,CNc1nc(N)c([N+](=O)[O-])c(NCc2ccccc2)n1,9.04
5,CCn1c(=O)n(CC)c2cc(N3CCCC3)c(NC(=O)c3cccc(Cl)c3)cc21,13.6
6,COc1ccc(CCn2c(O)c(C=Nc3ccccc3F)c(=O)[nH]c2=O)cc1OC,18.5
7,COc1ccc(Oc2cc(C)nc(Cl)n2)nn1,9.5
8,BrC(/C=N/N1CCN(Cc2ccccc2)CC1)=C/c1ccccc1,-0.0237
9,CC(C)C(=O)OC1CCS(=O)(=O)c2sccc21 (stereo not shown),11.1
10,O=C(O)C(=O)O.OC(CNCC1COc2ccccc2O1)COCc1cccs1 (stereo not shown),-25.3
11,CN(C)c1nc(SCC(=O)Nc2ccc(Cl)c(Cl)c2)nc(N2CCOCC2)n1,2.56
12,CCC1(CC)C(=O)C2=C3C1[C@H](C(=O)OC)C=C(C(=O)OC)C[C@H]3[C@H]1C(=O)N(CC(=O)OC)C(=O)[C@H]1[C@H]2C (stereo partly shown),10.8
13,O=C(c1ccc2c3c(cccc13)CC2)C1CCCN(C(=O)c2ccc[n+]([O-])c2)C1 (stereo not shown),2.52
14,CC(NC(C)c1ccccc1Cl)C(=O)Nc1cccc(S(=O)(=O)N2CCCCC2)c1 (stereo not shown),9.92
15,CC(=O)NCc1ccc(S(=O)(=O)N/N=C/c2ccccc2)cc1,7.62
16,COc1cc(C2CC(=O)N3CN(c4ccccc4C)CSC3=C2C#N)cc(OC)c1OC (stereo not shown),4.19
17,O=C(COC(=O)c1cccc(-n2cnnn2)c1)c1ccc(F)cc1,7.04
18,Cc1ccccc1OCC(=O)N/N=C/c1ccco1,15.3
19,COc1ccc(C)cc1S(=O)(=O)NCC(c1cccnc1)N1CCc2ccccc2C1 (stereo not shown),8.76
20,CC1(C)Cc2nc3sc4c(N(CCO)CCO)nnnc4c3cc2CO1,4.01
21,O=C(NC(=S)Nc1ccc(NC(=O)c2ccccc2)cc1)c1ccc(F)cc1,7.94
22,COCCn1c(O)c(/C=N/NC(=O)CSC(=S)N2CCCC2)c(=O)[nH]c1=S,11.5
